# From the supplement of paper PMC7826260
# This is one part of the list. Cleavage of a single-stranded DNA pool by Rep nickase domains was read by sequencing for 1 h at 37 °C with 3 µM enzyme; only the middle of the 90-letter strands is printed. Numbers give uncut DNA relative to the enzyme-free pool, as log2; uncut sequences lie near 0, cut ones below; no hit call is given. The scaling is to total reads; where an enzyme cuts many sequences, the uncut ones exceed 0.
# Assays:
# Experiment in all cases: uncleaved DNA left, log2 of reads against the no-enzyme library (log2 ratio); higher = less cleavage (more negative = more Rep cleavage of the k-mer); sequences stand for … in CTCGTCCG…ACCGGAGA
# [1] = test system: T1, Rep nickase domain of Muscovy duck circovirus
# T1 sequence (residues 1-111, tag not shown): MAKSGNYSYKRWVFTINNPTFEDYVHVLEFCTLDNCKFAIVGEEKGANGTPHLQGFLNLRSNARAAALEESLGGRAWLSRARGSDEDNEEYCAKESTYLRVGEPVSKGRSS
# Protocol: (§1)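 A pool of 90-nt single-stranded DNAs with seven random bases just before the constant AC of the nick site (name = the seven bases) was cut by 3 µM recombinant His6-SUMO-tagged Rep nickase domain (300 nM DNA, 50 mM HEPES pH 8.0, 50 mM NaCl, 1 mM MnCl2, 1 h, 37 °C, three replicates). Uncut DNA was amplified and sequenced.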
# [2] = test system: T2, Rep nickase domain of banana bunchy top virus
# T2 sequence (residues 1-94, tag not shown): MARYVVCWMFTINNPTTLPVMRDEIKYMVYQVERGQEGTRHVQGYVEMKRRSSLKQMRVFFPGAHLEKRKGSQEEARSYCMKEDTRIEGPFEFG
# Protocol: as §1
# [3] = test system: T3, Rep nickase domain of cabbage leaf curl virus
# T3 sequence (residues 1-116, tag not shown): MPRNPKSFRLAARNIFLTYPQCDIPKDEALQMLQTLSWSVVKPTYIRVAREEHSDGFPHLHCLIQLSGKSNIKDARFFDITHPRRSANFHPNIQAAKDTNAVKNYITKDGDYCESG
# Protocol: as §1
# [4] = test system: T4, Rep nickase domain of chickpea chlorotic dwarf virus
# T4 sequence (residues 1-124, tag not shown): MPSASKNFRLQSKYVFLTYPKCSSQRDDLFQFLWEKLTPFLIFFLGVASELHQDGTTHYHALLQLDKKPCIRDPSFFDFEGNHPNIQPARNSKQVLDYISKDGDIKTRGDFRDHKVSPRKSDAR
# Protocol: as §1
# [5] = test system: T5, Rep nickase domain of faba bean necrotic yellows virus
# T5 sequence (residues 1-98, tag not shown): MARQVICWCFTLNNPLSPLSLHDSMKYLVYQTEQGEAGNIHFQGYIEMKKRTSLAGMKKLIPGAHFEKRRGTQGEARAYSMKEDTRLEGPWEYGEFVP
# Protocol: as §1
# [6] = test system: T6, Rep nickase domain of maize striate mosaic virus
# T6 sequence (residues 1-117, tag not shown): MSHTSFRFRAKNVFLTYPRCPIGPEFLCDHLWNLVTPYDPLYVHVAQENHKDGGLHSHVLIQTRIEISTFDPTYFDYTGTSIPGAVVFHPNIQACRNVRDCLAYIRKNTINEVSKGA
# Protocol: as §1
# [7] = test system: T7, Rep nickase domain of porcine circovirus 2
# T7 sequence (residues 2-116, tag not shown): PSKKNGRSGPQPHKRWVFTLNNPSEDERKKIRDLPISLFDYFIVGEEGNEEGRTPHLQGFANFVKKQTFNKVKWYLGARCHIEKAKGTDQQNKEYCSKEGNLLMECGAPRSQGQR
# Protocol: as §1
# [8] = test system: T8, Rep nickase domain of tomato yellow leaf curl virus
# T8 sequence (residues 1-136, tag not shown): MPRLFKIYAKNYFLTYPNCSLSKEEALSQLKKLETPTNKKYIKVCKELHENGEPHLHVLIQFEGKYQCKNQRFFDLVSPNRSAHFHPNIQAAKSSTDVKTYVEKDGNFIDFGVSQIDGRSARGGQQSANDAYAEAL
# Protocol: as §1
# [9] = test system: T9, Rep nickase domain of wheat dwarf virus
# T9 sequence (residues 1-137, tag not shown): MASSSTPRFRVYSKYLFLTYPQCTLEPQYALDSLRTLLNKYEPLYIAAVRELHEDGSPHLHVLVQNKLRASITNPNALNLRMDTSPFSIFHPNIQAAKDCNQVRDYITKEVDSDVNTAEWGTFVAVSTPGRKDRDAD
# Protocol: as §1
Sequence,uncleaved DNA left (log2) [1],uncleaved DNA left (log2) [2],uncleaved DNA left (log2) [3],uncleaved DNA left (log2) [4],uncleaved DNA left (log2) [5],uncleaved DNA left (log2) [6],uncleaved DNA left (log2) [7],uncleaved DNA left (log2) [8],uncleaved DNA left (log2) [9]
GCATTGG,0.0598,-0.06,-0.675,-0.558,0.0605,-0.979,0.0699,0.149,-0.0539
CGTACGC,-0.0178,0.000806,-0.019,-0.0286,-0.115,-0.347,-0.0286,-0.0645,-0.061
CGATCGG,0.0781,0.0692,0.173,0.788,0.0278,1.33,0.147,-0.0292,0.024
CAAAGGT,0.0468,-0.0471,-0.038,0.0773,-0.0561,0.867,0.0565,-0.135,-0.0849
CTGTCTT,-2.31,-0.927,-0.103,-1.95,-0.75,-0.393,-3.33,0.0475,-0.0597
TGGCTTA,0.195,0.119,0.432,0.21,0.292,0.788,0.139,0.264,0.342
CCAGCAC,-0.0853,0.0263,-0.217,-0.591,-0.0877,-0.772,-0.0131,-0.211,-0.0749
AGATTAG,-0.00944,0.0826,-0.637,-0.322,0.162,-1.15,0.0866,0.138,-0.0275
AAAACGG,0.0637,0.0581,0.481,1.32,0.0858,1.31,0.162,-0.0528,0.122
AACAAGA,-0.0326,-0.0406,-0.0766,-0.363,-0.0825,-0.949,0.166,-0.0708,-0.078
AGGATCA,-0.0272,0.0991,0.412,0.637,-0.0395,1.01,0.0758,0.0237,0.0968
TATAACG,0.0271,-0.0304,-0.884,-0.87,0.0732,-1.09,0.123,0.00121,-0.123
TTCGGAA,-0.0464,0.0176,0.388,0.722,0.0852,0.808,0.054,-0.103,0.137
TTGAGTT,0.00956,-0.137,-0.354,-1.96,-0.242,-0.882,-0.91,-0.0625,-0.0851
TATATCA,0.0941,0.129,0.52,-0.55,0.0203,0.855,-0.0539,0.157,0.271
TATGTAT,0.0889,-0.0856,-0.134,-0.864,-0.00959,0.432,-0.205,-0.0327,-0.0142

Sequence,uncleaved DNA left (log2) [1],uncleaved DNA left (log2) [2],uncleaved DNA left (log2) [3],uncleaved DNA left (log2) [4],uncleaved DNA left (log2) [5],uncleaved DNA left (log2) [6],uncleaved DNA left (log2) [7],uncleaved DNA left (log2) [8],uncleaved DNA left (log2) [9]
GCGGCGA,-0.0726,-0.0251,-0.401,-0.207,0.0162,-0.325,0.0575,-0.0192,-0.218
CGCCATA,-0.176,0.00516,-0.128,-0.582,0.0803,-0.365,-0.134,-0.0133,-0.0275
CTATTAT,-1.07,-0.102,-0.496,-1.45,-0.271,-0.772,-1.74,-0.187,-0.189
ATAATGT,0.14,0.0756,0.292,-0.479,0.177,-0.947,0.102,0.0489,0.00135
GATGGCT,0.139,0.0103,0.047,0.0697,-0.0151,0.0391,0.112,0.0253,-0.0442
ACCGGAA,0.0534,0.19,0.221,0.507,0.0301,0.112,0.223,0.0181,0.0978
GCTAGCT,0.0954,-0.0279,-0.185,-0.319,0.0474,-0.584,0.0128,-0.0383,-0.0821
CTAAACT,0.11,0.0553,-0.0912,-2.91,0.00883,-0.695,-0.185,0.0503,-0.104
AAATGAT,-0.278,0.0285,-3.43,-2.57,0.0537,-0.941,-3.65,-0.226,-1.66
CCTTGGA,-0.0653,-0.026,-0.216,-0.296,0.0384,-0.99,0.109,-0.0114,0.00191
ACCGGGG,-0.028,0.0307,0.76,1.25,-0.025,2.11,0.163,-0.526,0.0593
ATTCTGA,0.151,-0.037,-0.0378,0.29,-0.0469,0.156,0.0562,-0.151,0.0212
ACACGAC,-0.00809,0.0563,-0.191,-0.243,0.0418,-0.775,0.111,-0.0428,0.0204
GAGTGGC,-0.00775,0.0397,0.201,0.708,-0.058,0.489,0.0673,0.00266,-0.0398
CGGTCCG,-0.0925,-0.00614,-0.851,-0.177,-0.0825,-0.564,0.0213,-0.0726,-0.119
GTCGCCG,-0.0412,0.0102,0.0621,0.0329,0.041,-0.096,0.0355,-0.0692,-0.113
